Results from the supplement of paper PMC9446081.
The whole screen tested about 39,000 compounds, of which about 220 (0.56%) showed activity. The list shows a part of the results.
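Also: static incubation at 37 °C against the wild-type strain, values averaged over two biological replicates.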

The compounds below were run on Escherichia coli K-12 BW25113 (assay: relative growth (OD600 normalised to plate interquartile mean) (fraction); higher = less growth inhibition, active = 0.2 or less). Conditions: 50 µM; LB; incubation time: overnight (16-24 h).
In the case of `Cc1cn(CCC(=O)O)c(=O)[nH]c1=O`, the relative growth is reported as inactive: 0.98.
`C[C@@H]1CCCCO[C@H](CN(C)Cc2ccc(Cl)c(Cl)c2)[C@@H](C)CN([C@@H](C)CO)C(=O)c2cc(NC(=O)Nc3ccccc3)ccc2O1` was tested, and the relative growth was inactive: 1.02.
In the case of `C[C@H]1CN([C@@H](C)CO)C(=O)c2cccc(NS(=O)(=O)c3cn(C)cn3)c2O[C@H]1CN(C)CC1CCCCC1`, the relative growth is reported as inactive: 0.993.
With `CC(=O)O[C@H](CC(=O)O)C[N+](C)(C)C` the relative growth was inactive: 1.02.
`CC(C)(C)C(=O)C[n+]1ccc(C(N)=O)cc1` was tested, and the relative growth was inactive: 0.95.
With `CCCN(C)C[C@@H]1OCCCC[C@H](C)Oc2ccc(NC(=O)c3ccccc3)cc2C(=O)N([C@@H](C)CO)C[C@@H]1C` the relative growth was inactive: 0.974.
In the case of `O=C(C[C@@H]1CC[C@@H]2[C@H](COC[C@@H](O)CN2Cc2cc(F)ccc2F)O1)N[C@@H]1CCN(Cc2ccccc2)C1`, the relative growth is reported as inactive: 1.02.
For `C[C@H](CO)N1C[C@H](C)[C@@H](CN(C)C(=O)Nc2ccc3c(c2)OCO3)Oc2c(NC(=O)c3ccncc3)cccc2C1=O`, the relative growth was inactive: 1.01.
`COCC(=O)Nc1ccc2c(c1)C(=O)N(C)C[C@@H](OC)[C@@H](C)CN(Cc1ccccc1F)[C@@H](C)CO2` was tested, and the relative growth was inactive: 1.04.
In the case of `Cc1ccc(S(=O)(=O)Nc2ccc3c(c2)C(=O)N([C@@H](C)CO)C[C@H](C)[C@H](CN(C)S(=O)(=O)c2cn(C)cn2)O3)cc1`, the relative growth is reported as inactive: 0.997.
In the case of `C[C@@H]1CN([C@H](C)CO)C(=O)c2cc(NC(=O)C3CC3)ccc2O[C@@H]1CN(C)S(=O)(=O)c1ccc(Cl)cc1`, the relative growth is reported as inactive: 0.994.
With `C[C@H]1CN([C@@H](C)CO)C(=O)Cc2cc(NC(=O)CCCN(C)C)ccc2O[C@@H]1CN(C)S(=O)(=O)c1cccs1` the relative growth was inactive: 1.02.
In the case of `C[C@@H]1CCCCO[C@@H](CN(C)S(C)(=O)=O)[C@@H](C)CN([C@@H](C)CO)C(=O)c2cc(NC(=O)CCCN(C)C)ccc2O1`, the relative growth is reported as inactive: 0.99.
For `COc1ccc(S(=O)(=O)Nc2ccc3c(c2)C(=O)N([C@@H](C)CO)C[C@H](C)[C@H](CN(C)S(=O)(=O)c2c(C)noc2C)O3)cc1`, the relative growth was inactive: 0.991.
In the case of `C[C@@H]1CN([C@H](C)CO)C(=O)c2cccc(NS(=O)(=O)c3cn(C)cn3)c2O[C@H]1CN(C)C(=O)Nc1ccccc1`, the relative growth is reported as inactive: 0.995.
`C[C@@H]1CN([C@H](C)CO)C(=O)c2cccc(NC(=O)Nc3cccc4ccccc34)c2O[C@@H]1CN(C)Cc1ccncc1` was tested, and the relative growth was inactive: 0.982.
For `O=C(C[C@@H]1CC[C@@H]2[C@H](COC[C@H](O)CN2C(=O)Nc2cccc(Cl)c2)O1)NCCCN1CCOCC1`, the relative growth was inactive: 0.93.
In the case of `CC(C)COC(=O)CNc1n[nH]c(=O)[nH]c1=O`, the relative growth is reported as inactive: 1.01.
With `COCC(=O)N1CC[C@]2(CCOC2)C1` the relative growth was inactive: 0.957.
`C[C@H](CO)N1C[C@H](C)[C@H](CN(C)C(=O)CCC(F)(F)F)OCCCC[C@H](C)Oc2ccc(NC(=O)CCC(F)(F)F)cc2C1=O` was tested, and the relative growth was inactive: 1.01.
In the case of `C=CCOC(=O)[C@@H]1[C@H]2C(=O)O[C@H](c3ccccc3)[C@H](c3ccccc3)N2[C@H](c2ccc(OCCOC(=O)[C@@H]3C[C@@H]4C(=O)NCC(=O)N4[C@@H]3c3ccc(O)cc3)cc2)[C@@]12C(=O)Nc1ccccc12`, the relative growth is reported as inactive: 1.07.
With `C[C@H]1CCCCO[C@@H](CN(C)CC2CCCCC2)[C@@H](C)CN([C@@H](C)CO)C(=O)c2cc(NS(=O)(=O)c3ccccc3)ccc2O1` the relative growth was inactive: 1.01.
With `CCS(=O)(=O)N1C[C@]2(C1)CN([C@H](CO)c1c2c2ccc(cc2n1C)OC)C(=O)Nc1cccc(c1)F` the relative growth was inactive: 0.984.
In the case of `Cn1cnc(S(=O)(=O)N2C[C@H](O)COC[C@@H]3O[C@@H](CC(=O)NCc4cccc(F)c4)CC[C@H]32)c1`, the relative growth is reported as inactive: 1.01.
`C[C@@H]1CCCCO[C@H](CN(C)C(=O)C2CCCCC2)[C@H](C)CN([C@@H](C)CO)C(=O)c2cc(NC(=O)Nc3cccc4ccccc34)ccc2O1` was tested, and the relative growth was inactive: 1.03.
`COc1ccc(NC(=O)N(C)C[C@@H]2Oc3c(NC(=O)c4cc(C)nn4C)cccc3C(=O)N([C@@H](C)CO)C[C@H]2C)cc1` was tested, and the relative growth was inactive: 1.
In the case of `Cc1noc(C)c1NC(=O)Nc1ccc2c(c1)C(=O)N([C@@H](C)CO)C[C@H](C)[C@@H](CN(C)C(=O)Nc1ccc(C(F)(F)F)cc1)OCCCC[C@H](C)O2`, the relative growth is reported as inactive: 1.01.
In the case of `C[C@@]1(C2CC2)NC(=O)NC1=O`, the relative growth is reported as inactive: 0.937.
In the case of `COc1ccc([C@@H]([C@H](Cc2ccccc2)OC(C)=O)N2C[C@@H](OC(C)=O)[C@@H]3[C@H]([C@@H]2Cc2ccccc2)N(C)O[C@H]3c2ccccc2)cc1`, the relative growth is reported as inactive: 1.03.
`Cc1cc(C(=O)c2cc3cc(Cl)ccc3o2)ccc1Cl` was tested, and the relative growth was inactive: 0.97.
`C[C@@H]1CN([C@H](C)CO)C(=O)Cc2cc(NC(=O)Nc3ccccc3)ccc2O[C@@H]1CN(C)S(C)(=O)=O` was tested, and the relative growth was inactive: 0.982.
`Cc1ccccc1-c1ccc2c(c1)O[C@H](CN(C)C(=O)Nc1ccc(C(F)(F)F)cc1)[C@@H](C)CN([C@H](C)CO)S2(=O)=O` was tested, and the relative growth was inactive: 0.991.
In the case of `COc1ccc(S(=O)(=O)N(C)C[C@H]2OCCCC[C@@H](C)Oc3ccc(NS(C)(=O)=O)cc3C(=O)N([C@H](C)CO)C[C@H]2C)cc1`, the relative growth is reported as inactive: 0.987.
In the case of `COc1ccc(COC[C@]23N=C4SCc5ccccc5CN4[C@H](c4ccccc4O2)[C@H]3COC(=O)c2ccccc2)cc1`, the relative growth is reported as inactive: 1.01.
With `C[C@@H]1CN([C@@H](C)CO)C(=O)c2cc(NC(=O)Nc3cccc4ccccc34)ccc2O[C@@H]1CN(C)C(=O)NC1CCCCC1` the relative growth was inactive: 1.
In the case of `C[C@H]1CN([C@@H](C)CO)C(=O)c2cc(NC(=O)CCC(F)(F)F)ccc2O[C@H]1CN(C)S(C)(=O)=O`, the relative growth is reported as inactive: 0.989.
With `C[C@H](CO)N1C[C@H](C)[C@H](CN(C)C(=O)Nc2ccc(F)cc2)OCCCC[C@H](C)Oc2ccc(NS(=O)(=O)c3ccc(Cl)cc3)cc2C1=O` the relative growth was inactive: 1.03.
In the case of `CN1C(=O)c2cc(NC(=O)Nc3ccccc3F)ccc2OC[C@H]2O[C@H](CC(=O)NCc3ccc(-c4ccccc4)cc3)CC[C@H]21`, the relative growth is reported as inactive: 1.04.
